86 sequences from the supplement of paper PMC3334620 can be followed below.

The full ranking holds about 33,000 sequences; the median of “E-score (-0.5 to 0.5)” is about -0.012, and the highest 2% start at about 0.27. The list shows a part of the results.

In the assay the target is T1, Vhr1 (UniProt P40522).
T1 sequence: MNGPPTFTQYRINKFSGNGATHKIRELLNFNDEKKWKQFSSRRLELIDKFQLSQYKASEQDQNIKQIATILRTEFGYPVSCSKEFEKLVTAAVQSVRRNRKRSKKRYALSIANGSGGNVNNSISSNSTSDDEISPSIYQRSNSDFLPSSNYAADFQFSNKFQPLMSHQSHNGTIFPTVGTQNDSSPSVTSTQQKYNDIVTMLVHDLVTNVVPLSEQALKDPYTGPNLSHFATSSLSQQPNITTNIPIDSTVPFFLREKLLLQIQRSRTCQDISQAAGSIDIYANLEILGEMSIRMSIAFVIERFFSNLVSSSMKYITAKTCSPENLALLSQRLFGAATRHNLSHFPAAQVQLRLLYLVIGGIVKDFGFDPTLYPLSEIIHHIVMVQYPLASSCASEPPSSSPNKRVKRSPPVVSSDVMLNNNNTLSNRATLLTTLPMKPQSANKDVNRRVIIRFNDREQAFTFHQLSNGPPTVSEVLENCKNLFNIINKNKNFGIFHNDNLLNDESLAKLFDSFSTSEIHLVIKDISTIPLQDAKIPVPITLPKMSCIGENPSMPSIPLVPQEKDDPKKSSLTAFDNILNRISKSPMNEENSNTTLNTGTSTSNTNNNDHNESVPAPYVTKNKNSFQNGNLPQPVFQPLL
Description: PBM E-score (8-mer binding enrichment) (E-score (-0.5 to 0.5)); higher = stronger / more preferred TF binding; most listed sequences are background and not binding sites. The following applies: protein concentration: 200 nM; construct: GST-full length. An outline of the steps:
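Universal all-10-mer Agilent arrays, fresh or stripped once, were converted to double-stranded form by primer extension. GST-tagged yeast transcription factors from PURExpress in vitro transcription/translation, full-length or DNA-binding domain only, were applied at about 100-200 nM and detected with fluorescent anti-GST. After masliner normalisation, the Universal PBM Analysis Suite scored each ungapped eight-base word together with its reverse complement by E-score.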
In the case of CGTAACTC, the “PBM E-score” value was -0.0198.
Next, CATACCAC: -0.0239; CCGCGTGC: -0.0148.
Next, GATTAAAA: 0.0635.
Next, CACATGGC: 0.138; AGAAGACC: -0.227.
For CCCGGGAC, the “PBM E-score” value was determined as 0.0125.
The result for TCACAAAA reads -0.0514; that for CTTGTGTC, 0.11; that for CCCTGGAA, -0.11.
Regarding AGCACGGA, the “PBM E-score” value is -0.086.
Next, ACACACCC: 0.198; TGGATAAA: -0.0384.
On to ACGTATCC, for which the “PBM E-score” value is -0.194.
Next, CGTTGTCC: 0.0312.
On to CCCGAGGC, for which the “PBM E-score” value is 0.0675.
Next, ATGCCAAG: -0.0266; CCAACTCG: 0.154.
The result for ACGGGTTA reads -0.255; that for CCTGCCGA, -0.0773.
Next, TCCATAGA: -0.0605.
In the case of GTACACTA, the “PBM E-score” value was found to be 0.0675.
Next, CTATGGCC: -0.123; TACCCAAA: -0.031; CCGCAAAC: 0.182.
Next, GCACGCGA: 0.0992; CTAAGTCC: -0.151; GGGGTGAC: 0.0669.
Consider CTGAGTTC, for which the “PBM E-score” value was 0.0461.
With CTCACTCC, the “PBM E-score” value is -0.00221.
The result for CATATTTC reads -0.0396; that for CCGATTGC, 0.14.
Next, CGTTCCCA: -0.132.
Regarding CAACAATG, the “PBM E-score” value is 0.168.
The result for CCCCATAG reads -0.0409; that for GTGGACAC, 0.0973; that for AGCATCAG, 0.0568.
Next, ATAGTCCA: 0.121; CCGTCGAA: -0.119; ACGAGGTA: 0.048.
Next, AAATATTA: 0.134; ATCAATCC: 0.1; ACACTATG: 0.292.
Regarding ACTTGTAT, the “PBM E-score” value turned out to be 0.13.
Next, GGGCAACC: -0.168.
As for AGCTCAAG, the “PBM E-score” value was -0.129.
The result for CTATAGGC reads -0.243; that for CTTGAAAG, -0.189.
The result for CCACCGAG reads 0.216; that for GCGCGAGC, -0.032; that for CATGAAGA, -0.0351.
The result for AAGGGAGT reads -0.0334; that for GTCCTATA, -0.265; that for AGACGAAG, -0.0754.
For the sequence AAATGCAA, the “PBM E-score” value was -0.233.
The result for CGACGATA reads 0.0215.
The result for AACGTGGA reads -0.0551.
Next, ACGCAAAG: -0.123.
As to AAAGTCCT, the “PBM E-score” value was -0.203.
Next, GTGTCTAA: -0.139; ACGACTTG: -0.0454.
Next, CTGCTTAC: -0.119.
As for AGCCCACG, the “PBM E-score” value is -0.0366.
For ACAACAGC, the “PBM E-score” value is -0.0783.
Next, AGTTCTGA: -0.201.
The result for CGCGTATC reads 0.143.
Next, AGGTAATC: 0.104.
As to ATTCCGGG, the “PBM E-score” value was 0.0193.
Next, AAAGGGCA: -0.0157; ATAAGACA: -0.0876.
Take CAACTTCA: the “PBM E-score” value is -0.138.
The result for TGGGAACA reads 0.0218; that for GCACTACC, -0.0106; that for GAATGAAC, -0.0436.
The result for AGGTAACA reads 0.109; that for GCAATCCC, 0.0389; that for AAGCAGCG, 0.0391.
Next, ACAGTCGA: -0.0382; AAAAGAAA: -0.312; CAGAACGC: -0.0689.
With GAACCCGA, the “PBM E-score” value is 0.0438.
Next, CCCTCGGC: -0.0968; GAGTCTCC: 0.254.
Next, CAAATCTA: -0.0242.
Take GCAAACAC: the “PBM E-score” value turned out to be 0.0615.
Next, CTGTTCTC: -0.0559.
